Among the data in PubChem BioAssay (NCATS) are AC50 values, retold here.

The other results are listed elsewhere or left out. Shown are side measurements of this screen, not its main read-out; they come without a call. The list favours compounds with an active or inconclusive main result. Words in brackets tell the shape of the fitted curve; partial curves, single points and poor fits give uncertain potencies.
Tags describe the fitted curve by direction and shape.

One assay can be described thus: Cell-based coincidence reporter assay to measure PMP22 gene transcription in S16 Pmp22-F2sN cells - Confirmatory screen (AID 1508646). The settings on record: S16 Schwann cells Pmp22-F2sN, dual luciferase, 24 h; measured here: FLuc reporter channel. The method, boiled down:
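S16 Schwann cells carrying a bioluminescent reporter in the Pmp22 3' UTR (Pmp22-F2sN) were treated with compounds for 24 h at 37C, then lysed; FLuc and then NLuc luminescence were read sequentially with a dual-luciferase kit on a CCD imager.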
In general, AC50 refers to the concentration at which the activity in the assay is half-maximal. Higher therefore signals activity only at high concentration. For `Cc1oc(-c2ccc(Cl)cc2)nc1CN1CCCC(C(=O)NCc2ccccc2)C1` (configuration not stated), the AC50 is 21.7 µM [falling, partial curve, poor fit].

For `Cc1ccc(NC(=O)CSc2nc3n[nH]c(C)c3c(=N)n2-c2ccccc2C)cc1C`, the AC50 was 24.3 µM [falling, partial curve, poor fit].

For the compound `Cc1ccccc1-n1c(SCC(=O)c2ccccc2)nnc1-c1ccc(F)cc1`, the concentration at half-maximal activity (AC50) was 27.3 µM [falling, single point].

On to `CCOC(=O)c1cc2c(=O)n3ccccc3nc2n(CC2CCCO2)c1=NC(=O)c1cccc(C(F)(F)F)c1` (configuration not stated), for which the AC50 is 1.09 µM [falling, partial curve, poor fit].

Regarding `CCC(C)NC(=O)c1cn(CC)c2ccc(S(=O)(=O)N3CCc4ccccc4C3)cc2c1=O` (configuration not stated), the concentration at half-maximal activity (AC50) was 17.2 µM [falling, partial curve, poor fit].

For `CCCCOc1ccc(CN2C(=O)C(=O)c3cc(Br)cc(C)c32)cc1OC`, the AC50 is 12.2 µM [falling, partial curve].

`Cc1cc(N2CCN(c3cccc(C(F)(F)F)c3)CC2)n2nc(-c3ccccc3C)nc2n1`: the AC50 was 43.2 µM [falling, single point].

Turning to `CCCCCOc1ccccc1CN1C(=O)C(=O)c2cc(C)ccc21`, the half-maximal activity concentration (AC50) is 24.3 µM [falling, partial curve].

In the case of `CC(=O)N1c2ccc(S(=O)(=O)NCC3CCC(C(=O)Nc4cc(C)ccc4C)CC3)cc2CC1C` (configuration not stated), the AC50 is 24.3 µM [falling, partial curve, poor fit].

As for `COc1ccc(C2=C(C)C(=NCCCN3CCN(c4cc(C)ccc4C)CC3)NS2(=O)=O)cc1`, the AC50 is 21.7 µM [falling, partial curve, poor fit].

As to `CCNc1nc(NC(C)(C)C)nc(Oc2ccc(=O)n(-c3ccccc3)n2)n1`, the AC50 was 13.7 µM [falling, full curve, poor fit].

Turning to `COc1ccc(Cl)cc1NC(=O)CSc1nc2ccccc2nc1N1CCCCC1`, the concentration at half-maximal activity (AC50) was 12.2 µM [falling, full curve, poor fit].

For the compound `COc1ccc(-n2nc3c(N4CCCC(C(=O)NCc5ccccc5C)C4)nnc(C)c3c2C)cc1` (configuration not stated), the AC50 was 17.2 µM [falling, partial curve].

As for `CCCCCCOc1ccc(/C=C/C(=O)Nc2sc3c(c2C(=O)OC)CCC3)cc1OC`, the AC50 was 30.6 µM [rising, single point].

Turning to `Cc1ccc(CNC(=O)c2nc(S(=O)(=O)Cc3ccc(C)cc3)ncc2Cl)cc1`, the AC50 was 15.3 µM [falling, partial curve].

`Cc1ccc(-n2c(SCc3nc(-c4ccc(Cl)cc4)no3)nnc2-c2ccncc2)cc1`: the AC50 is 13.7 µM [falling, full curve].

As for `Cc1ncc(CO)c2c1Oc1nc(-c3ccccc3)nc(SCC(=O)N3CCCCC3)c1C2`, the AC50 was 21.7 µM [falling, partial curve].

On to `COc1ccc(-n2c(C)nnc2SCc2nc(-c3ccc(OC)c(OC)c3)no2)cc1`, for which the AC50 is 0.385 µM [falling, full curve, poor fit].

Take `Cc1ccc(NC(=O)N(Cc2cn(C)c3ccccc23)C2CCCCC2)cc1C`: the concentration at half-maximal activity (AC50) is 17.2 µM [falling, partial curve, poor fit].

The same assay, now with this note: S16 Schwann cells Pmp22-F2sN, dual luciferase, 24 h; measured here: NLuc reporter channel.
For the compound `CCCSc1ncc(Cl)c(C(=O)Nc2ccc(S(=O)(=O)N3CCCCC3C)cc2)n1` (configuration not stated), the half-maximal activity concentration (AC50) is 30.6 µM [falling, single point].

Take `CCOC(=O)N1CCN(Cc2nc3cc(NC(=O)C(C)C)ccc3n2C(C)C)CC1`: the AC50 is 6.85 µM [falling, full curve, poor fit].

On to `CC(=O)c1cccc(Nc2nc(-c3ccccc3Cl)nc3ccccc23)c1`, for which the AC50 is 19.3 µM [falling, partial curve].

On to `Cc1ccc(CSc2nc3ccc(NC(=O)COc4ccccc4)cc3s2)cc1`, for which the AC50 is 15.3 µM [falling, partial curve, poor fit].

With `Cn1c(=O)n(-c2ccc3c(c2)OCO3)c2nc(-c3ccc(Cl)cc3)nc(C(N)=O)c21`, the concentration at half-maximal activity (AC50) is 3.85 µM [falling, full curve, poor fit].

Turning to `Cc1ccc(S(=O)(=O)Cc2ccc(C(=O)N3CCN(c4cccc(C)c4C)CC3)o2)cc1`, the AC50 is 19.3 µM [falling, partial curve, poor fit].

Take `CCn1c(CN2CCCCC2)nc2cc(NC(=O)COc3ccccc3C(C)(C)C)ccc21`: the half-maximal activity concentration (AC50) is 19.3 µM [falling, partial curve].

As for `Cc1ccc(CNC(=O)c2ccc(Nc3nc4ccccc4n4nnnc34)cc2)cc1`, the AC50 is 12.2 µM [falling, partial curve].

For the compound `CCOc1ccc(CN2C(=O)C(=O)c3cccc(C)c32)cc1OC`, the AC50 was 15.3 µM [falling, partial curve, poor fit].

With `Cc1oc(-c2ccc(Cl)cc2)nc1CN1CCCC(C(=O)NCc2ccccc2)C1` (configuration not stated), the AC50 is 43.2 µM [falling, partial curve, poor fit].

Regarding `O=C(Nc1ccc(Br)cc1F)N1CC=C(c2c[nH]c3ccccc23)CC1`, the AC50 is 8.62 µM [falling, full curve].

On to `Cc1ccccc1-n1c(SCC(=O)c2ccccc2)nnc1-c1ccc(F)cc1`, for which the AC50 was 21.7 µM [falling, partial curve].

Turning to `CCCCOc1ccc(CN2C(=O)C(=O)c3cc(Br)cc(C)c32)cc1OC`, the AC50 is 9.68 µM [falling, full curve].

For the compound `Cc1cc(N2CCN(c3cccc(C(F)(F)F)c3)CC2)n2nc(-c3ccccc3C)nc2n1`, the concentration at half-maximal activity (AC50) is 34.3 µM [falling, partial curve, poor fit].

As to `Cc1cccc(CCn2c(=O)c3ccccc3n(CC(=O)Nc3ccccc3F)c2=O)c1`, the concentration at half-maximal activity (AC50) is 15.3 µM [falling, full curve, poor fit].

`CCCCCOc1ccccc1CN1C(=O)C(=O)c2cc(C)ccc21`: the AC50 is 24.3 µM [falling, partial curve].

Regarding `COc1ccc(OC)c(NC(=O)c2c(NCc3sccc3C)sc3c2CCCCC3)c1`, the AC50 was 30.6 µM [falling, partial curve].

For `COc1ccc(C2=C(C)C(=NCCCN3CCN(c4cc(C)ccc4C)CC3)NS2(=O)=O)cc1`, the AC50 was 27.3 µM [falling, single point].

Regarding `COc1ccc(-n2nc3c(N4CCCC(C(=O)NCc5ccccc5C)C4)nnc(C)c3c2C)cc1` (configuration not stated), the AC50 was 21.7 µM [falling, partial curve].

As to `CC1CCN(C(=O)CCS(=O)(=O)c2cc3c(cc2Cl)NC(=O)CO3)CC1`, the half-maximal activity concentration (AC50) was 19.3 µM [falling, partial curve, poor fit].

On to `Cc1ccc(CNC(=O)c2nc(S(=O)(=O)Cc3ccc(C)cc3)ncc2Cl)cc1`, for which the AC50 was 19.3 µM [falling, partial curve].

With `CCC1=Nc2cc(C(=O)NCCN(CC)CC)ccc2Sc2ccccc21`, the concentration at half-maximal activity (AC50) was 24.3 µM [falling, partial curve].

Take `N#CC1=C2SCN(C3CCCCC3)CN2C(=O)CC1c1c(F)cccc1Cl` (configuration not stated): the half-maximal activity concentration (AC50) is 43.2 µM [falling, single point].

Take `COc1ccc(-c2noc(CSc3nnc(C)n3-c3ccc(F)cc3)n2)cc1`: the concentration at half-maximal activity (AC50) was 12.2 µM [falling, full curve, poor fit].

Regarding `Cc1ccc(-n2c(SCc3nc(-c4ccc(Cl)cc4)no3)nnc2-c2ccncc2)cc1`, the concentration at half-maximal activity (AC50) was 12.2 µM [falling, single point].

Consider `Cc1ncc(CO)c2c1Oc1nc(-c3ccccc3)nc(SCC(=O)N3CCCCC3)c1C2`, for which the AC50 is 24.3 µM [falling, partial curve].

As for `Cc1ccc(NC(=O)N(Cc2cn(C)c3ccccc23)C2CCCCC2)cc1C`, the half-maximal activity concentration (AC50) was 15.3 µM [falling, partial curve].

For `COc1ccc(NC(=O)Cn2c(=O)cc(C)c3c(C)nn(C)c32)cc1`, the half-maximal activity concentration (AC50) is 6.85 µM [falling, partial curve].
